In all, about 48,000 compounds went through this assay and about 120 (0.25%) were called active. Another 4% or so got no clear call; they are omitted. Calls come from the whole dose curve; as a rule, active = well fitted activation curve with a large enough effect; inconclusive = small, poorly fitted or top-dose-only effect, or another doubt; inactive = no such curve, though single readings can be large or run the other way. The list shows a part of the results.
assay: Primary qHTS for Identification of Small Molecule Activators of Huntingtin-Antisense Promoter Activity; conditions: HEK293 HTT-AS promoter firefly luciferase reporter (activity 0% = vehicle and -100% = no light), 24 h; series mostly up to 57.5 µM; activity change, positive = activation: at the top concentration; note: nearly all actives have a fitted effect of over 55% in size
Method in brief: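 Quantitative HTS used concentration series of up to 57.5 uM final on HEK293 luciferase reporter cells, 24 h at 37 degrees C. Readout was Dual-Glo firefly luminescence.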

Activity change, positive = activation, inactive:
O=C(Nc1ccc(OCc2cc(=O)n3c4c(sc3n2)CCCC4)cc1)c1ccc(F)cc1 -6.3%
COC(=O)Cc1c(C)c2ccc3c(c2oc1=O)CN(Cc1ccc(C)cc1)CO3 -8.22%
Cc1ccccc1-c1noc(CSc2nc(-c3ccc(F)cc3)cc(=O)[nH]2)n1 -13.4%
COc1ccc(-n2nnnc2SCC(=O)NCCc2ccccc2)cc1 -8.3%
CCc1ccccc1NS(=O)(=O)c1ccc2[nH]cc(C(=O)NC3CCCC3)c(=O)c2c1 -36.4%
NC(=O)C1CCN(c2ncnc3c2cnn3-c2cccc(Cl)c2)CC1 -59.1%
CCOc1ccc(CCNC(=O)CCn2c(=O)c3cccn3c3ccc(F)cc32)cc1 -19.1%
CC(C)COc1ccc(C(=O)Nc2onc3c2CCCC3)cc1 -16.6%
Cc1ccc(NC(=O)Cn2nc(C(F)(F)F)c3c2CCC3)cc1C -16.4%
Cc1cccc(CNC(=O)CCCN2C(=O)c3cccnc3Oc3ccccc32)c1 -5.85%
COc1ccc(-c2noc(-c3ccc(NCc4ccco4)c([N+](=O)[O-])c3)n2)cc1OC 0.0894%
CCc1ccc(N2CC(c3nc4ccccc4n3Cc3ccccc3C)CC2=O)cc1 (stereo not drawn) -39%
CCC1Oc2ccc(C)cc2N(CC(=O)NCCc2ccccc2)C1=O (stereo not drawn) -8.71%
CCOC(=O)c1cnc2ccc(OC(F)(F)F)cc2c1Nc1ccccc1C(=O)O -6.09%
Cc1ccc(NC(=O)CCCN2C(=O)COc3ccc(C)cc32)c(Cl)c1 -10.6%
COc1cccc(/C=C/c2nc(C#N)c(N3CCCCCC3)o2)c1 -15%
CCOC(=O)c1cnn2c(C(F)(F)F)cc(-c3ccc(Br)cc3)nc12 3.1%
O=C(Nc1cccc(C(F)(F)F)c1)C1CCN(S(=O)(=O)c2cccc3nsnc23)CC1 -35.1%
COc1ccc(-c2cnc(C)o2)cc1S(=O)(=O)Nc1cccc(C(F)(F)F)c1 -25.6%
COc1ccc(C(=O)CC2(O)C(=O)N(CCc3ccccc3)c3ccc(Br)cc32)cc1OC (stereo not drawn) -30.4%
COc1ccc(-n2nc(C(=O)N3CCN(c4cccc(C)c4)C(C)C3)c3c4ccccc4n(C)c3c2=O)cc1Cl (stereo not drawn) -17.2%
COc1cccc(-n2c(=O)c3c4c(sc3n(Cc3ccccc3C#N)c2=O)CCCC4)c1 7.68%
Cc1ccccc1-c1noc(-c2ccc(NC3CCCC3)c([N+](=O)[O-])c2)n1 -9.38%
O=S(=O)(c1ccc2nc(Nc3ccc(Br)cc3F)ccc2c1)N1CCCC1 -12.2%
CN(C(=O)CSc1nc2ccc(NC(=O)c3ccccc3)cc2s1)c1ccccc1 -26.8%
O=C(CSc1oc(-c2cccs2)nc1S(=O)(=O)c1ccccc1)Nc1ccc(F)cc1 -23.5%
Cc1ccc(C2=NN(CCC(=O)NCCc3cccc(C)c3)C(=O)CC2)cc1 -20.3%
COc1ccc(Cn2c(NCC(C)C)nc3c2c(=O)n(C)c(=O)n3C)cc1 -14.3%
CC(=O)Nc1cccc(-c2nnc(SCC(=O)c3ccc([N+](=O)[O-])cc3)o2)c1 5.31%
COc1ccc(OC)c(CNC(=O)c2cnc(N(C)C)nc2)c1 -5.88%
CCOc1ccccc1/C=C/c1onc(C)c1S(=O)(=O)N1CCC(C(=O)N2CCCCC2)CC1 -4.29%
COc1cc(CN(C(=O)c2ccc(C)cc2)c2ccccn2)cc(OC)c1OC -35.9%
Cc1ccc(-n2nc(C)c3c(C(=O)Nc4ccc(C)cc4Cl)cc(C)nc32)cc1 13.1%
CCOC(=O)CSc1nc(-c2ccc(OC)cc2)cc(C(F)(F)F)c1C#N -17.6%
COc1ccc(NCc2cccn2-c2nnc(N3CCC(C)CC3)s2)c(OC)c1 -80.7%
Cc1cccc(-c2nc(S(=O)(=O)c3ccccc3)c(N3CCN(c4ccccc4)CC3)o2)c1 -4.44%
CSc1ccc(-c2nc3cc(C)ccn3c2Nc2ccc(C)cc2)cc1 19.9%
CCc1ccc(NC(=O)C(=O)NCCc2sc(-c3ccc(C)cc3)nc2C)cc1 -7.04%
O=C(CSc1nc2c(c(=O)[nH]1)CCC2)Nc1cc(C(F)(F)F)ccc1Cl -8.13%
Cn1ccc2c(OCC(=O)NCc3ccc(F)cc3)cccc2c1=O -18.6%
COc1c(Cl)cc(Cl)cc1C(=O)Nc1cccc2cccnc12 3.85%
Cc1ccc(C(=O)c2cn(Cc3ccccc3)c3cc4c(cc3c2=O)OCCO4)cc1 10.5%
CCc1nnc(NC(=O)c2nc(SCc3ccc(F)cc3)ncc2Cl)s1 6.59%
O=C(O)/C=C\C(=O)O 1.45%
CCOc1ccc(OCC)c(NS(=O)(=O)c2ccc3c(c2)CCCN3C(C)=O)c1 -20.9%
CCCCn1c(C2CC(=O)N(c3ccc(OCC)cc3)C2)nc2ccccc21 (stereo not drawn) -9.29%
O=C(OCC1CCCO1)c1ccc2c(c1)N(Cc1c(F)cccc1Cl)C(=O)c1ccccc1S2(=O)=O (stereo not drawn) -20.5%
CCOCCn1c(=NC(=O)c2ccc3c(c2)OCCO3)sc2cc(OCC)ccc21 17.4%
Cc1cc(C)c(NC(=O)c2ccc3nc(C(C)C)oc3c2)c(C)c1 -9.86%
COCC(C)NC(=O)C1=CC(c2ccc3c(c2)OCO3)=NS(=O)(=O)N1C (stereo not drawn) -20%
CCC(C(=O)NC1CCCCC1)n1nc(C)c2sc3ccccc3c2c1=O (stereo not drawn) -3.7%
COc1ccc(S(=O)(=O)N2CCC(c3nnnn3-c3ccccc3)CC2)cc1OC -25.5%
Cc1cccc(S(=O)(=O)c2cn(Cc3ccc(F)cc3)c3cc(N4CCOCC4)c(F)cc3c2=O)c1 -43.1%
Cc1ccc(Cl)cc1N1CCN(C(=O)c2cnc3c(-c4ccc(F)cc4)c(C)nn3c2C)CC1 2.24%
O=C(Cn1cc(SCc2ccc(F)cc2)c2ccccc21)N1CCCC1 16.1%
CCN(CC)S(=O)(=O)c1ccc2c(c1)c(=O)c(C(=O)N1CCN(c3cc(C)ccc3C)CC1)cn2C -26.9%
CC1CCCN(Cc2c(O)ccc3c(=O)c(-c4ccccc4Cl)c(C(F)(F)F)oc23)C1 (stereo not drawn) -7.98%
Cc1ccccc1C(OCCN(C)C)c1ccccc1 (stereo not drawn)
O=C(NC1CCCC1)c1ccc(CSc2nc3cccnc3n2Cc2ccccc2F)cc1 -33.1%
O=C(Cn1c(-c2cccs2)cc2ccccc21)NCCCN1CCN(c2ccc(F)cc2)CC1 -32.5%
Cc1c(I)c(=O)n(-c2ccccc2)n1C -6.35%
Cc1cc(C)c(NS(=O)(=O)c2ccc3c(c2)NC(=O)CCS3)c(C)c1 -23%
O=C(COc1ccc(Cl)cc1)N(Cc1ccco1)c1ccccn1 30.8%
Cc1cccc(Cn2c(CNC(=O)c3ccccc3)nc3ccccc32)c1 -11.8%
Cc1ccn2c(Nc3ccc(C(C)C)cc3)c(-c3ccsc3)nc2c1 21.1%
CC(C)OCCCNC(=O)c1c2c(nc3ccccc13)C(=O)N(C1CCCCC1)C2 -12.8%
CCOC(=O)c1cc(-c2ccccc2)n(CC(=O)Nc2cc(Cl)c(OC)cc2OC)c1C -5.41%
CCCCCOc1ccccc1Cn1c(=O)oc2ccc(C)cc21 -15.1%
Cc1nn(C(C)C(=O)Nc2cccc(F)c2)c(=O)c2c1sc1ccccc12 (stereo not drawn) -21.7%
COCCNC(=O)CCSc1nc(-c2ccc(OC)cc2)cc(C(F)(F)F)n1 -22.2%
Cc1ccc(Nc2c(-c3ccc(N4CCOCC4)cc3)nc3ncccn23)c(C)c1 -9.99%
Cc1ccc(CNC(=O)CC(C)CC2=NS(=O)(=O)c3ccccc3N2)cc1 (stereo not drawn) -22.3%
CCc1ccc(N2CCn3c2nc2c3c(=O)n(C/C=C/c3ccccc3)c(=O)n2C)cc1 -5.02%
COC(=O)C1=C(C)NC(C)=C(C(=O)OCCN(C)Cc2ccccc2)C1c1cccc([N+](=O)[O-])c1 (stereo not drawn) -73.7%
COc1ccc(NC(=O)c2c(NCc3ccc(N(C)C)cc3)sc3c2CCC3)cc1 -0.32%
CCOc1ccccc1NC(=O)N(Cc1ccc(F)cc1)C1CCN(CC)CC1 -11.5%
Cc1ccsc1CN(C(=O)c1oc2ccc(F)cc2c1C)C1CCS(=O)(=O)C1 (stereo not drawn) -33.6%
Cc1ccc(Nc2ncc(C(=O)N3CCN(c4ccc(F)cc4)CC3)c3ccccc23)cc1Cl -21%
CCOc1ccc(-c2nonc2NC(=O)c2oc3cc(C)c(C)cc3c2C)cc1OCC 3.82%
Cc1ccc(NC(=O)C2CCCN2S(=O)(=O)c2cccc3nsnc23)c(C)c1 (stereo not drawn) -18.5%
Cc1ccc(C)c(-n2c3nc(=O)[nH]c(=O)c-3cc3c(C)nn(-c4ccccc4)c32)c1 -10%
CCc1ccc(NC(=O)c2ccc(F)c(S(=O)(=O)N3CCC4(CC3)OCCO4)c2)cc1 -24.8%
COc1cccc(CNS(=O)(=O)c2cc3[nH]c(=O)c(=O)[nH]c3cc2C)c1 -6.74%
Cc1ccc(S(=O)(=O)C(CNC(=O)c2ccc(F)c(F)c2)c2ccco2)cc1 (stereo not drawn) -14.5%
O=C(CSc1oc(-c2ccco2)nc1S(=O)(=O)c1ccc(Br)cc1)c1ccccc1 -2.45%
CCC(=O)C1=C(c2ccc(Cl)cc2)N(C(=O)CC)n2c(C)nnc2S1 -11.3%
CCS(=O)(=O)c1ccc(O)c(Nc2cc(C)nc(SC)n2)c1 -40.7%
CCCCn1c(=O)c2oc3ccccc3c2n(Cc2cccc(F)c2)c1=O -28%
CCC(C)Cn1c(/C=C/c2ccccc2)nc2ccccc21 (stereo not drawn) -8.07%
CCc1nnc2c(Nc3cccc(F)c3)nc3ccc(C(=O)c4ccccc4)cc3n12 -30.2%
CCOC(=O)c1cccc(NC(=O)c2cc3c(=O)n(C)c4ccccc4c3n2C)c1 3.51%
Cc1ccc(CNC(=O)CCN2C(=O)COc3ccc(C)cc32)cc1 -8.34%
Cc1cc(C)cc(NC(=O)c2ccc3c(c2)nnn3C2CCCC2)c1 -25.4%
Cc1ccc(NC2=C(CC(=O)O)C(c3ccc(F)cc3)N(c3ccc(C)cc3)C2=O)cc1 (stereo not drawn) 9.47%
Cc1cncc2cccc(S(=O)(=O)N3CCCN(C(=O)CN)C[C@@H]3C)c12 -0.321%
CC(C)c1cnc2c(c1SCC(=O)Nc1ccc(OC(F)(F)F)cc1)c(=O)n(C)c(=O)n2C -13.6%
CC1CCN(S(=O)(=O)c2nnc(NC(=O)c3ccc(C(C)C)cc3)s2)CC1 -17.8%
O=C(CCCN1C(=O)c2cccnc2Oc2ccc(Cl)cc21)NCc1ccccc1F -22%

Reference: PubChem BioAssay AID1508624 (National Center for Advancing Translational Sciences (NCATS), 2021)
